{
  "source": "PubChem BioAssay AID1468",
  "about": "(National Center for Advancing Translational Sciences (NCATS), 2008)",
  "note": "In all, about 280,000 compounds went through this assay and about 1,100 (0.39%) were called active. The shares of active, inactive and inconclusive entries below differ from those in the screen. The call rests on the fitted dose curve; in most records, active means well fitted inhibition curve with a large enough effect; inconclusive means small, poorly fitted or top-dose-only effect, or effect the other way; inactive means flat fitted curve, though single readings scatter. Potencies of inconclusive entries are left out as doubtful fits. Potency means the concentration at half of the fitted maximal effect; tags describe the fitted curve by direction and shape.",
  "data": [
    {"target": "Microtubule-associated protein tau (Homo sapiens) (UniProt P10636)", "sequence (P10636 whole entry, looked up)": "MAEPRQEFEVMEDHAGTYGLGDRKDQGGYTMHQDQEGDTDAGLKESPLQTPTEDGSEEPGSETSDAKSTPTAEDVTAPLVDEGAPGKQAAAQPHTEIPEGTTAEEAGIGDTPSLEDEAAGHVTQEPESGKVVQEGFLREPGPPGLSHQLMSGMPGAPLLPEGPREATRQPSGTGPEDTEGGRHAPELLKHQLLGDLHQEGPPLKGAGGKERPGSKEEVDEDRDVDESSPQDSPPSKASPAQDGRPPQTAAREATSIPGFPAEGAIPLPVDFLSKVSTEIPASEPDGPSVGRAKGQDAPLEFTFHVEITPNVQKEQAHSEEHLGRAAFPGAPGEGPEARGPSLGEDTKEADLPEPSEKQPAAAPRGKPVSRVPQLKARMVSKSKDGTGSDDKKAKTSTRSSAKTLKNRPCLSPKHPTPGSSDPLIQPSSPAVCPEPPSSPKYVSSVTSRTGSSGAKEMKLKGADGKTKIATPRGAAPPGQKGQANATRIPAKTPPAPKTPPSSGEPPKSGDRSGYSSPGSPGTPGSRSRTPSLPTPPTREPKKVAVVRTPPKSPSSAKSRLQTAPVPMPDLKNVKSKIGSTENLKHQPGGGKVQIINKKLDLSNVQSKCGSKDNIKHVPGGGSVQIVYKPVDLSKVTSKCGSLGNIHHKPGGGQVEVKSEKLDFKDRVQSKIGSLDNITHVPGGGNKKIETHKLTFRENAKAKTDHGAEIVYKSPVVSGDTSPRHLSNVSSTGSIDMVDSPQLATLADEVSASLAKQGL", "assay": "qHTS for Inhibitors of Tau Fibril Formation, Fluorescence Polarization; further: nearly all actives have a fitted effect of over 55% in size", "settings": "K18 P301L tau heparin fibrillization, Alexa594 FP, 6 h; series mostly up to 57.7 µM", "method_in_brief": "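Quantitative HTS format: compounds meet 15 uM recombinant K18 P301L tau and Alexa 594-tau tracer in 100 mM sodium acetate pH 7; 20 uM heparin triggers fibrillization at 37 C over 6 hr; FP gives the signal.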", "values": [
      {"smiles": "CCCCNC(=S)NCc1ccc2[nH]c3c(c2c1)CCCC3", "Potency": "inconclusive [activator, partial curve, poor fit]"},
      {"smiles": "Cc1cccc(NC(=O)CSc2nc3ccc(NC(=O)c4cccs4)cc3s2)c1", "Potency": "inconclusive [inhibitor, partial curve]"},
      {"smiles": "COc1cc(-c2nnco2)cc(OC)c1OC", "Potency": "inconclusive [inhibitor, full curve, poor fit]"},
      {"smiles": "CCN(CC)S(=O)(=O)c1ccc(/C=C/C(=O)OCC(=O)Nc2ccc(S(N)(=O)=O)cc2)cc1", "Potency": "inactive"},
      {"smiles": "CCCn1c(Nc2nc3ccccc3n2C)nc2ccccc21", "Potency": "inconclusive [activator, partial curve]"},
      {"smiles": "FC(F)(F)c1ccccc1/C=N/N1CCN(Cc2ccccc2)CC1", "Potency": "inactive"},
      {"smiles": "CN(C)c1ccc(P(=O)(OC2CCCCC2)C(O)c2ccncc2)cc1", "note": "(stereo not given)", "Potency": "inconclusive [inhibitor, partial curve]"},
      {"smiles": "COc1cc2c(=O)n(Cc3ccccc3)c(=O)n(CC(=O)Nc3cc(C(F)(F)F)ccc3Cl)c2cc1OC", "Potency": "inconclusive [inhibitor, single point]"},
      {"smiles": "O=C(N/N=C/C=C\\c1ccco1)c1cccnc1", "Potency": "inconclusive [inhibitor, partial curve, poor fit]"},
      {"smiles": "CCN1C(=O)N[C@H](c2ccc(Br)cc2)C(C(C)=O)=C1C", "Potency": "inactive"},
      {"smiles": "Cc1ccc(C)c(OCc2nnc(NC(=O)c3ccco3)s2)c1", "Potency": "inconclusive [inhibitor, single point]"},
      {"smiles": "COCCNC(=O)c1noc2c1CCc1cc(OC)ccc1-2", "Potency": "inactive"},
      {"smiles": "OCc1cn(-c2ccc(Cl)cc2)nn1", "Potency": "inconclusive [inhibitor, full curve, poor fit]"},
      {"smiles": "Brc1cc(Br)c2nc(-c3cccs3)ccc2c1", "Potency": "inconclusive [inhibitor, partial curve, poor fit]"},
      {"smiles": "COc1cc2nc(SCC(=O)Nc3ccc(F)cc3)n3nc(CCn4c(C)nc5ccccc54)nc3c2cc1OC", "Potency": "inconclusive [inhibitor, partial curve]"},
      {"smiles": "CCCCN(C)C(=S)Nc1ccsc1C(=O)OC", "Potency": "inconclusive [inhibitor, single point]"},
      {"smiles": "O=C(CCCOc1ccc(Cl)cc1Cl)N/N=C/c1ccc(Cl)cc1", "Potency": "inconclusive [inhibitor, full curve]"},
      {"smiles": "Cc1ccc(S(=O)(=O)N2CCCC2)cc1C(=O)O", "Potency": "inactive"},
      {"smiles": "Cc1nc2c(-c3ccc(F)cc3)c(C)nn2c(C)c1CCC(=O)Nc1ccccc1", "Potency": "inactive"},
      {"smiles": "O=C(Nc1cc(Cl)cc(Cl)c1)c1ccc(F)c(S(=O)(=O)N2CCCCCC2)c1", "Potency": "inconclusive [inhibitor, partial curve]"}
    ]}
  ]
}
